# PubChem BioAssay AID651820 (National Center for Advancing Translational Sciences (NCATS), 2012)
# Values joined by “and” are separate entries in the source; they are usually repeats but may differ in a detail not shown here. Identical values can stand only once. About 12,000 (3.5%) of roughly 340,000 compounds were called active. Inconclusive results, whose numbers are uncertain, are shown with a selection of clear calls. The call rests on the fitted dose curve; in most records, active means well fitted inhibition curve with a large enough effect; inconclusive means small, poorly fitted or top-dose-only effect, or another doubt; inactive means no such curve, though single readings can be large or run the other way. Potencies of inconclusive entries are doubtful fits and often do not repeat.
# Test: qHTS Assay for Inhibitors of Hepatitis C Virus (HCV)
# Details: Huh7.5.1 HCVcc-Cre (HCVcc is cell-culture hepatitis C virus) infection, luciferase reporter, 44 h; series mostly up to 41.8 µM
# Summary of the method: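 Whole-lifecycle infectious HCVcc-Cre system; cells 1,000/well, compound then virus (~0.5 moi) added 4 h after plating, 44 h culture. Luciferase read 15 sec following 15 min substrate incubation, room temp.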
# Potency means the concentration at half of the fitted maximal effect; tags describe the fitted curve by direction and shape.
row,SMILES,Potency
1,CN(c1ccc(C(=O)NC2CCCCC2)cc1)S(=O)(=O)c1ccccc1,"inconclusive: 10 µM [inhibitor, partial curve]"
2,CCC1CCCCN1c1nc2c(C=O)c(C)nn2c2ccccc12 (stereo unspecified),active: 10 µM
3,O=C(NCCc1ccccc1)C(=O)NCC1CCCN1S(=O)(=O)c1ccccc1 (stereo unspecified),"inconclusive: 12.6 µM [inhibitor, single point]"
4,Cc1nc(NC(=O)C2CC2)sc1C(=O)Nc1ccccc1,"inconclusive: 31.6 µM [inhibitor, single point]"
5,COc1ccc(/C=N/NC(=O)CCC(=O)Nc2ccc(F)cc2)c(OC)c1,inactive
6,CCC(=O)Nc1nc2ccccc2n1Cc1ccc(Cl)cc1,"inconclusive: 14.1 µM [inhibitor, single point]"
7,Cc1nc2c([nH]c3ccc(Br)cc32)s1,active: 10 µM
8,C=CC(=O)Nc1cccc(CN2C(=O)N(c3cc(OC)cc(OC)c3)Cc3cnc(NCCCCN(CC)CC)nc32)c1,"inconclusive: 31.6 µM [inhibitor, single point]"
9,CCOc1ccc(S(=O)(=O)N(CC)CC(=O)NCc2ccco2)cc1C,"inconclusive: 1.58 µM [inhibitor, partial curve]"
10,COc1ccc(Cl)cc1NC(=O)N1CCN(CCc2ccccc2)CC1,"inconclusive: 35.5 µM [inhibitor, single point]"
11,Cc1ccc(C)c(Sc2ccc(NC(=O)CCl)cc2)c1,"inconclusive: 25.1 µM [inhibitor, single point]"
12,CC(=O)NS(=O)(=O)c1ccc(N=c2ssc3c2-c2ccc(C)cc2NC3(C)C)cc1,"inconclusive: 31.6 µM [inhibitor, single point]"
13,O=C(/C=C/c1c[nH]c2ccccc12)c1cccc2ccccc12,"inconclusive: 11.2 µM [inhibitor, partial curve, poor fit]"
14,CC(=O)c1cccc(NC(=O)CSc2n[nH]c(=O)n2C2CC2)c1,inactive
15,CCOc1ccc(N2CC(C(=O)Nc3ccc(S(=O)(=O)N4CCCCC4)cc3)CC2=O)cc1 (stereo unspecified),"inconclusive: 3.98 µM [inhibitor, full curve, poor fit]"
16,COc1c(O)ccc(/C=N/NC(=O)c2ccc3c(c2)OCCO3)c1[N+](=O)[O-],"inconclusive: 11.2 µM [inhibitor, partial curve]"
17,COc1cccc(OCc2nc3ccccc3c(=O)n2N)c1,inactive
18,CCCN1CCN(C(=O)c2cc(COc3ccc(F)c(F)c3)on2)CC1,inactive
19,O=C(c1cc(C(=O)NCc2ccccc2)c(=O)n(Cc2ccccc2)c1)c1cc(Br)ccc1O,"inconclusive: 10 µM [inhibitor, partial curve]"
20,Cc1oc(-c2ccc(Cl)cc2)nc1CS(=O)CC(=O)NCc1ccccn1 (stereo unspecified),inactive
21,CCOc1ccc(NC(=O)C2C3CC/C=C\CCC32)cc1 (stereo unspecified),inactive
22,Cc1ccc(C(=O)O/N=C\c2ccc(N3CCCCC3)c([N+](=O)[O-])c2)cc1,"inconclusive: 31.6 µM [inhibitor, single point]"

row,SMILES,Potency
1,Cc1ccc(S(=O)(=O)/C(C#N)=C/c2c[nH]c3ccccc23)cc1,inactive
2,CCOC(=O)c1cc(CC)sc1NC(=O)COC,"inconclusive: 2 µM [inhibitor, full curve]"
3,COc1ccc(NC(=S)N/N=C2\CC(C)(C)Oc3ccc(O)cc32)cc1,"inconclusive: 20 µM [inhibitor, single point]"
4,O=C(NCCc1ccc(F)cc1)Nc1ccc([N+](=O)[O-])cc1,"inconclusive: 31.6 µM [inhibitor, single point]"
5,COc1cc2c(c(OC)c1)C(=O)OC(C)CCCC(=O)CCCCC2 (stereo unspecified),inactive
6,O=C1C(Nc2ccccc2)=C/C(=N/S(=O)(=O)c2cccs2)c2ccccc21,active: 3.98 µM
7,COc1ccc2c(c1)sc(N)[n+]2Cc1cc(C)cc2cccnc12,active: 8.91 µM
8,CCOC(=O)c1ccc(S(=O)(=O)N2CCC(C(=O)N3CCN(c4ccccc4OC)CC3)CC2)cc1,active: 10 µM
9,O=C(Nc1cccc(-c2nc3ccccc3[nH]2)c1)c1ccco1,"inconclusive: 14.1 µM [inhibitor, single point]"
10,Cc1nn(C(C)(C)C)c(C)c1/C=N/OC(=O)Nc1ccc(Cl)cc1,"inconclusive: 10 µM [inhibitor, partial curve]"
11,Cc1cc2oc(=O)cc(Cn3ncc(Cl)c(Cl)c3=O)c2cc1Cl,active: 11.2 µM
12,Cc1ccc(C(=O)NCCn2cc(SCC(=O)Nc3nnc(C)s3)c3ccccc32)cc1,"inconclusive: 10 µM [inhibitor, single point]"
13,CCCCOc1ccc(-c2csc(N)n2)cc1[N+](=O)[O-],"inconclusive: 22.4 µM [inhibitor, single point]"
14,CCc1nn2cc(C(=O)c3cc(C)ccc3O)cnc2c1-c1ccc(F)cc1,"inconclusive: 31.6 µM [inhibitor, single point]"
15,c1ccc(C[n+]2c(-c3ccccc3)csc2Nc2ccccc2)cc1,"inconclusive: 15.8 µM [inhibitor, partial curve]"
16,Oc1ccccc1N1CCN(c2nc(-c3cccs3)nc3ccccc23)CC1,active: 11.2 µM
17,Cc1ccc(C(=O)CSc2nnc(CNc3ccc(C)cc3C)n2Cc2ccco2)cc1,"inconclusive: 562 nM [inhibitor, full curve] and inconclusive: 1.26 µM [inhibitor, partial curve]"
18,c1ccc2c(c1)-c1nc3ccccc3cc1C2N1CCOCC1 (stereo unspecified),"inconclusive: 35.5 µM [inhibitor, single point]"
19,Cc1ccc(NCc2ccc(O)c3ncccc23)cc1C,"inconclusive: 31.6 µM [inhibitor, single point]"
20,COc1ccc(OC)c(-n2nnnc2SCC(=O)NCc2ccc3c(c2)OCO3)c1,"inconclusive: 1.41 µM [inhibitor, full curve] and inconclusive: 31.6 µM [inhibitor, single point]"
21,COc1cc(CNC(=O)c2ccccc2NC(=O)C2=C(C)OCCS2)cc(OC)c1OC,"inconclusive: 10 µM [inhibitor, single point]"
22,COC(=O)c1ccc2c(c1)c(-c1ccccc1)c(-c1ccccc1)n2C,active: 7.08 µM

row,SMILES,Potency
1,Cc1ccccc1N1CCN(C(=O)c2ccc(Oc3ccc(C(F)(F)F)cn3)cc2)CC1,"inconclusive: 31.6 µM [inhibitor, single point]"
2,CC(C)c1ccc2nc(SCC(=O)NCC3CCCO3)c(C#N)cc2c1 (stereo unspecified),"inconclusive: 25.1 µM [inhibitor, single point]"
3,COC(=O)Oc1ccc(/C=C/C(=O)OC(C)C)cc1OC(=O)OC,"inconclusive: 10 µM [inhibitor, partial curve]"
4,O=C1C=C(Nc2cccc3cccnc23)c2ccccc2C1=O,"inconclusive: 10 µM [inhibitor, single point]"
5,Cc1ccc(C(C(=O)NC2CCCCC2)N(Cc2ccco2)C(=O)Cc2c[nH]c3ccccc23)o1 (stereo unspecified),"inconclusive: 31.6 µM [inhibitor, single point]"
6,CCN1/C(=C\C=C(C(C)=O)C(C)=O)Sc2ccccc21,inactive
7,Cc1nccn1CCC1CCCCN1C(=O)CCc1nnc(-c2ccsc2)o1 (stereo unspecified),"inconclusive: 31.6 µM [inhibitor, single point]"
8,O=C(Nc1cccc(NC(=O)c2cccc(Cl)c2)c1)c1cccnc1,"inconclusive: 3.16 µM [inhibitor, full curve]"
9,CCc1ccccc1OCC(=O)Nc1nc(-c2cccnc2)cs1,"inconclusive: 11.2 µM [inhibitor, partial curve]"
10,c1ccc(-c2cc(N3CCOCC3)nc3ccccc23)cc1,"inconclusive: 11.2 µM [inhibitor, single point]"
11,O=C(c1ccc(OC2CCN(Cc3ccc(F)cc3)CC2)cc1)N1CCCC1,"inconclusive: 11.2 µM [inhibitor, partial curve]"
12,CC1(C)Cc2c(sc(NC(=O)COc3ccccc3)c2C#N)C(C)(C)N1,active: 12.6 µM
13,COc1ccc(N(CC(=O)NCc2ccccc2C)S(=O)(=O)c2ccccc2[N+](=O)[O-])c(OC)c1,"inconclusive: 31.6 µM [inhibitor, single point]"
14,CN(Cc1ccccc1)C(=O)c1nc[nH]c1C(=O)N1CCc2ccccc2C1,"inconclusive: 3.16 µM [inhibitor, single point]"
15,CCS(=O)(=O)N1CCCC(C(=O)NCCCN2CCCC2=O)C1 (stereo unspecified),inactive
16,C=CCC[C@@H](Cc1ccc(F)cc1)C(=O)OC[C@@H](Cc1c[nH]c2ccccc12)NC(=O)[C@@H](CC=C)CC(=O)N[C@@H](CO)Cc1ccccc1,"inconclusive: 15.8 µM [inhibitor, single point]"
17,Cc1cccc(N2CCN(C(=O)C3CCN(S(=O)(=O)c4c(C)noc4C)CC3)CC2C)c1 (stereo unspecified),"inconclusive: 11.2 µM [inhibitor, single point]"
18,O=C(Oc1ccc(/C=N/NC(=O)c2ccco2)cc1)c1ccccc1,inactive
19,c1cncc(-c2nc(-c3ccc4c(c3)OCCO4)cs2)c1,"inconclusive: 22.4 µM [inhibitor, single point]"
20,Cc1ccc(Cl)cc1NC(=S)N(CCCN1CCN(C)CC1)Cc1ccco1,"inconclusive: 31.6 µM [inhibitor, single point]"
21,Cc1cc(C)nc(SCC(=O)NNC(=O)c2cccs2)n1,"inconclusive: 31.6 µM [inhibitor, single point]"
22,Cc1[nH]n(-c2cccc(Cl)c2)c(=O)c1-c1ccc(Cl)cc1,"inconclusive: 31.6 µM [inhibitor, single point]"
